# Experimental data: the supplement of paper PMC8728848
# This is one part of the list.
# B1: BC2LB (Burholderia cenocepacia), B4EH85_BURCJ (protein)
# chain: MGSSHHHHHHSSGENLYFQGHMSQPFTHDDLYALLQLAGNDATAVQANGDQAVLDRMRQFMTAQLVEKLPQYDVFVDIATIPYSFDVGSWQNKVKTDAAGEVVACTVTWAGAPGVLPGAAAKFGVGAVVNYFSKATPH
# Assays:
# Test in all cases: glycan array binding signal (z-score within array); higher = stronger binding
# Conditions in all cases: glycan notation: IUPAC condensed, linker removed
# [1] = target: Neu5Ac(a2-6)Gal(b1-4)GlcNAc(b1-6)[Gal(b1-3)GlcNAc(b1-3)]Gal(b1-4)Glc
# Outline: (§1)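 Glycan array data were curated from 3228 arrays in the Consortium for Functional Glycomics database and kept only where the protein sequence was available. Glycan names were converted to IUPAC-condensed notation, and columns mapping to the same glycan were averaged. The binding signal is a within-array Z-score, averaged across arrays of the same protein sequence at different concentrations or buffers and across linkers. Negative Z-scores can be read as non-binding.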
# [2] = target: Neu5Ac(a2-6)Gal(b1-4)GlcNAc(b1-6)[Gal(b1-3)]GalNAc
# Outline: as §1
# [3] = target: Neu5Ac(a2-6)Gal(b1-4)GlcNAc6S
# Outline: as §1
# Neu5Ac(a2-6)GalNAc = target: Neu5Ac(a2-6)GalNAc
# Outline: as §1
# [4] = target: Neu5Ac(a2-6)GalNAc(b1-4)GlcNAc
# Outline: as §1
# [5] = target: Neu5Ac(a2-6)GalNAc(b1-4)GlcNAc6S
# Outline: as §1
# [6] = target: Neu5Ac(a2-6)GlcNAc(b1-4)GlcNAc
# Outline: as §1
# [7] = target: Neu5Ac(a2-6)GlcNAc(b1-4)GlcNAc(b1-4)GlcNAc
# Outline: as §1
# Neu5Ac(a2-8)Neu5Ac = target: Neu5Ac(a2-8)Neu5Ac
# Outline: as §1
# [8] = target: Neu5Ac(a2-8)Neu5Ac(a2-3)Gal(b1-3)GalNAc(b1-4)[Neu5Ac(a2-3)]Gal(b1-4)Glc
# Outline: as §1
# [9] = target: Neu5Ac(a2-8)Neu5Ac(a2-3)Gal(b1-3)GalNAc(b1-4)[Neu5Ac(a2-8)Neu5Ac(a2-3)]Gal(b1-4)Glc
# Outline: as §1
# [10] = target: Neu5Ac(a2-8)Neu5Ac(a2-3)Gal(b1-4)Glc
# Outline: as §1
# [11] = target: Neu5Ac(a2-8)Neu5Ac(a2-3)Gal(b1-4)GlcNAc
# Outline: as §1
# [12] = target: Neu5Ac(a2-8)Neu5Ac(a2-3)[Gal(b1-3)GalNAc(b1-4)]Gal(b1-4)Glc
# Outline: as §1
# [13] = target: Neu5Ac(a2-8)Neu5Ac(a2-3)[GalNAc(b1-4)]Gal(b1-4)Glc
# Outline: as §1
# [14] = target: Neu5Ac(a2-8)Neu5Ac(a2-8)Neu5Ac
# Outline: as §1
# [15] = target: Neu5Ac(a2-8)Neu5Ac(a2-8)Neu5Ac(a2-3)Gal(b1-4)Glc
# Outline: as §1
# [16] = target: Neu5Ac(a2-8)Neu5Ac(a2-8)Neu5Ac(a2-3)[Gal(b1-3)GalNAc(b1-4)]Gal(b1-4)Glc
# Outline: as §1
# [17] = target: Neu5Ac(a2-8)Neu5Ac(a2-8)Neu5Ac(a2-3)[GalNAc(b1-4)]Gal(b1-4)Glc
# Outline: as §1
# [18] = target: Neu5Ac(a2-8)Neu5Ac(a2-8)Neu5Ac(a2-8)Neu5Ac(a2-3)[GalNAc(b1-4)]Gal(b1-4)Glc
# Outline: as §1
# [19] = target: Neu5Ac(a2-8)Neu5Gc(a2-3)Gal(b1-4)GlcNAc
# Outline: as §1
# [20] = target: Neu5Ac(b2-6)Gal(b1-4)GlcNAc
# Outline: as §1
# Neu5Ac(b2-6)GalNAc = target: Neu5Ac(b2-6)GalNAc
# Outline: as §1
# [21] = target: Neu5Ac9Ac(a2-3)Gal(b1-3)GlcNAc
# Outline: as §1
# [22] = target: Neu5Ac9Ac(a2-3)Gal(b1-4)GlcNAc
# Outline: as §1
# [23] = target: Neu5Ac9Ac(a2-6)Gal(b1-4)GlcNAc
# Outline: as §1
# [24] = target: Neu5Gc(a2-3)Gal(b1-3)GlcNAc
# Outline: as §1
# [25] = target: Neu5Gc(a2-3)Gal(b1-3)[Fuc(a1-4)]GlcNAc
# Outline: as §1
# Neu5Gc(a2-3)Gal(b1-4)Glc = target: Neu5Gc(a2-3)Gal(b1-4)Glc
# Outline: as §1
# [26] = target: Neu5Gc(a2-3)Gal(b1-4)GlcNAc
# Outline: as §1
# [27] = target: Neu5Gc(a2-3)Gal(b1-4)GlcNAc(b1-3)Gal(b1-4)GlcNAc(b1-2)Man(a1-3)[Neu5Gc(a2-3)Gal(b1-4)GlcNAc(b1-3)Gal(b1-4)GlcNAc(b1-2)Man(a1-6)]Man(b1-4)GlcNAc(b1-4)GlcNAc
# Outline: as §1
# [28] = target: Neu5Gc(a2-3)Gal(b1-4)[Fuc(a1-3)]GlcNAc
# Outline: as §1
# [29] = target: Neu5Gc(a2-6)Gal(b1-4)GlcNAc
# Outline: as §1
# Neu5Gc(a2-6)GalNAc = target: Neu5Gc(a2-6)GalNAc
# Outline: as §1
# [30] = target: Neu5Gc(a2-8)Neu5Ac(a2-3)Gal(b1-4)GlcNAc
# Outline: as §1
# [31] = target: Neu5Gc(a2-8)Neu5Gc(a2-3)Gal(b1-4)GlcNAc
# Outline: as §1
# [32] = target: Neu5Gc(a2-8)Neu5Gc(a2-3)Gal(b1-4)GlcNAc(b1-3)Gal(b1-4)GlcNAc
# Outline: as §1
# [33] = target: Neu5Gc(a2-8)Neu5Gc(a2-6)Gal(b1-4)GlcNAc
# Outline: as §1
# [34] = target: Neu5Gc(b2-6)Gal(b1-4)GlcNAc
# Outline: as §1
binder,measurement,setting,value
B1,glycan array binding signal (z-score),[1],-0.336
same,glycan array binding signal (z-score),[2],-0.315
same,glycan array binding signal (z-score),[3],-0.302
same,glycan array binding signal (z-score),Neu5Ac(a2-6)GalNAc,-0.234
same,glycan array binding signal (z-score),[4],-0.418
same,glycan array binding signal (z-score),[5],-0.026
same,glycan array binding signal (z-score),[6],-0.297
same,glycan array binding signal (z-score),[7],-0.338
same,glycan array binding signal (z-score),Neu5Ac(a2-8)Neu5Ac,-0.116
same,glycan array binding signal (z-score),[8],-0.191
same,glycan array binding signal (z-score),[9],-0.329
same,glycan array binding signal (z-score),[10],-0.306
same,glycan array binding signal (z-score),[11],-0.282
same,glycan array binding signal (z-score),[12],-0.226
same,glycan array binding signal (z-score),[13],-0.29
same,glycan array binding signal (z-score),[14],-0.251
same,glycan array binding signal (z-score),[15],-0.259
same,glycan array binding signal (z-score),[16],-0.227
same,glycan array binding signal (z-score),[17],-0.306
same,glycan array binding signal (z-score),[18],-0.178
same,glycan array binding signal (z-score),[19],-0.421
same,glycan array binding signal (z-score),[20],-0.283
same,glycan array binding signal (z-score),Neu5Ac(b2-6)GalNAc,-0.331
same,glycan array binding signal (z-score),[21],-0.007
same,glycan array binding signal (z-score),[22],-0.284
same,glycan array binding signal (z-score),[23],-0.108
same,glycan array binding signal (z-score),[24],0.437
same,glycan array binding signal (z-score),[25],-0.249
same,glycan array binding signal (z-score),Neu5Gc(a2-3)Gal(b1-4)Glc,1.13
same,glycan array binding signal (z-score),[26],0.007
same,glycan array binding signal (z-score),[27],-0.198
same,glycan array binding signal (z-score),[28],-0.092
same,glycan array binding signal (z-score),[29],-0.13
same,glycan array binding signal (z-score),Neu5Gc(a2-6)GalNAc,0.6
same,glycan array binding signal (z-score),[30],-0.298
same,glycan array binding signal (z-score),[31],-0.307
same,glycan array binding signal (z-score),[32],-0.34
same,glycan array binding signal (z-score),[33],-0.248
same,glycan array binding signal (z-score),[34],-0.265
